The whole screen tested about 48,000 compounds, of which about 450 (0.94%) were called active. About 19% were inconclusive and are not listed. Calls come from the whole dose curve; as a rule, active = well fitted inhibition curve with a large enough effect; inconclusive = small, poorly fitted or top-dose-only effect; inactive = no such curve, though single readings can be large or run the other way. The list shows a part of the results.
test: Primary qHTS for Identification of Small Molecule Inhibitors of Huntingtin Promoter Activity; conditions: HEK293 HTT promoter firefly luciferase reporter (activity 0% = vehicle and -100% = no light), 24 h; series mostly up to 57.5 µM; activity change, negative = inhibition: at the top concentration; note: nearly all actives have a fitted effect of over 50% in size
Procedure, shortened: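 HEK293 luciferase promoter-reporter cells (2,500/well) plated 24 h, then compounds added at up to 57.5 uM final for 24 h at 37 °C. Firefly luminescence by Dual-Glo, normalized to vehicle (0%) and zero RLU (-100%).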

Activity change, negative = inhibition, inactive:
COC(=O)c1ccc(Cl)cc1NC(=O)Nc1nnc(N(C)C2CCCCC2)s1 -8.04%
Cc1ccc(CNC(=O)C(NS(=O)(=O)c2cccs2)C(C)C)cc1 (stereo unspecified) -9.62%
Cc1ccc(CSC2=Nc3ccccc3C3=NC(CCC(=O)NC4CCCCC4)C(=O)N23)cc1 (stereo unspecified) -7.03%
CC(=O)c1cccc(NC(=O)CSc2nc3c(c(=O)[nH]2)CCC3)c1 -13.2%
COc1ccc(-n2nc3ccc(NC(=O)c4c(OC)cccc4OC)cc3n2)cc1 -3.04%
O=C(Cn1c(=O)n(-c2ccc(F)cc2)c(=O)c2sc3ccccc3c21)NC1CCCC1 -23.4%
CCc1ccc2oc(C(=O)Nc3ccccc3OC)cc(=O)c2c1 23.4% [at 11.5 µM]
CCc1nc2ccccc2n2c(-c3ccc(C)cc3)c3c(=O)n(C)c(=O)n(C)c3c12 -5.38%
Cc1cc(C)cc(NC(=O)C2CCCN(S(=O)(=O)c3cccc4nsnc34)C2)c1 (stereo unspecified) 1.32%
NC(=O)C1CCN(C(=O)c2ccc3c(c2)N(Cc2cccc(Cl)c2)C(=O)c2ccccc2S3=O)CC1 (stereo unspecified) -13.9%
CCOC(=O)c1c(C)[nH]c(C)c1S(=O)(=O)NCC(=O)Nc1ccc(C)cc1C -19.7%
COc1ccc(CSc2nc3ccncc3n2CC(=O)Nc2cc(C)cc(C)c2)cc1 7.37%
Cc1csc2nc(COC(=O)CNC(=O)c3ccc(F)cc3)cc(=O)n12 5.71%
Cc1ccc(C(=O)Nc2ccccc2C(=O)OCc2cc(=O)n3nc(C(C)C)sc3n2)cc1 -7.98%
Cc1ccc(C)c(NC(=O)CN(C)S(=O)(=O)c2cccc3cccnc23)c1 -10.7%
Cc1ccc(Cl)cc1N1CCN(CCCNC(=O)Cn2ncc3c([nH]c4ccccc43)c2=O)CC1 -0.475%
Cc1ccc(C)c(NC(=O)CSc2nc(-c3ccccc3)c(C#N)c(=O)[nH]2)c1 -15.1%
Cc1ccc(CNc2nc3ccc(Cl)cc3n3cnnc23)cc1 -15.2%
COC(=O)c1ccccc1NC(=O)C1=CC(c2ccc3c(c2)OCO3)=NS(=O)(=O)N1C -5.84%
CCc1cccc(C)c1Nc1c(-c2ccc(SC)cc2)nc2sccn12 15.2%
CCOc1ccc(N(C(=O)c2ccc(Cl)cc2)S(=O)(=O)c2ccc3c(c2)n(C)c(=O)n3C)cc1 5.5%
Fc1ccc(-c2noc3ncnc(Nc4ccc(F)cc4F)c23)cc1 -24.9%
Cc1cccc(NC(=O)Cn2c(=O)n(Cc3ccccc3)c(=O)c3sc4ccccc4c32)c1 -24.8%
CCOc1ccc(CCNC(=O)c2cccc(Nc3nc4ccccc4nc3-n3nc(C)cc3C)c2)cc1OCC -9.47%
COc1ccc(CCNC(=O)Cn2nnc(-c3ccc(Cl)cc3)n2)cc1OC 5.37%
Cc1cccc(NC(=O)CSc2ncc(-c3ccc(Br)cc3)[nH]2)c1 -28.8%
O=C(CSc1ccc(-c2cccs2)nn1)Nc1ccccc1 9.93%
Cc1cccc(-c2nc(CCNC(=O)COc3ccccc3)cs2)c1 -3.7%
COc1cccc(CNc2nc3ccccc3c3nc(-c4cccc(C)c4)nn23)c1 25.2%
CCN1CCc2nc(N)oc2CC1 6.12%
CC(=O)c1cccc(NC(=O)Nc2c(C)n(C)n(-c3ccccc3)c2=O)c1 -24.9%
COc1ccc(-c2cc(-c3ccccc3)nc(SCC(=O)Nc3ccccc3C)c2C#N)cc1 -12.1%
CCOCCCn1c(SCC(=O)Nc2cc(C)ccc2C)nc2c(oc3ccccc32)c1=O -6.54%
COC(=O)c1ccc(NC(=O)CN2CCCN(Cc3ccc(Cl)cc3)S2(=O)=O)cc1 -22.6%
CCN1CCc2c(sc(NC(=O)c3ccc(S(=O)(=O)N(CCOC)CCOC)cc3)c2C(N)=O)C1 -2.07%
Cc1ccc(-c2nc3cc(NC(=O)c4cc5ccccc5o4)ccc3o2)cc1Cl -14.9% [at 11.5 µM]
CN(C)CCNC(=O)c1ccc(-n2c(-c3ccccc3)cc3c2CCCCC3)cc1 12%
Cc1ccc(Sc2c(C(=O)NCc3cccc(F)c3)[nH]c3ccccc23)cc1 -20.4%
CC(NC(=O)CN1C(=O)COc2ccc(S(=O)(=O)N3CCCCCC3)cc21)c1ccccc1 (stereo unspecified) -18%
Cc1c(C(=O)N(C)C)sc2c1c(=O)n(-c1ccc(Cl)c(Cl)c1)c(=O)n2CC(=O)C(C)(C)C 2.26%
COc1ccccc1CNC(=O)CCC(=O)N1CC(C)Sc2ccccc21 (stereo unspecified) -34.8%
Cc1cccc(N2CCN(C(=O)CN3C(=O)COc4ccc(S(=O)(=O)N5CCC(C)CC5)cc43)CC2)c1C -15.3%
COc1ccc(C(=O)Nc2cccc(-c3cn4ccsc4n3)c2)c(OC)c1 39.6%
CCc1nn(CC(=O)N2CCC(C)CC2)c(=O)c2cc3occc3n12 -9.28%
CCCN(c1ccc(C(C)C)cc1)S(=O)(=O)c1ccc2c(c1)n(C)c(=O)c(=O)n2C -8.06%
Cc1ccc(-n2nc3c(N4CCC(C(=O)NC5CCC(C)CC5)CC4)nnc(C)c3c2C)cc1 (stereo unspecified) -15.7%
O=C(CCCCCCC(=O)Nc1ccc([C@H]2O[C@@H](CSc3nc(-c4ccccc4)c(-c4ccccc4)o3)C[C@@H](c3ccc(CO)cc3)O2)cc1)NO 64.1%
CCC(=O)Oc1cc(C(C)(C)C)cc2cc(-c3nc(-c4ccc(OC)cc4OC)no3)c(=O)oc12 -0.522%
CCOc1ccc(N(CC(=O)Nc2cc(OC)cc(OC)c2)S(=O)(=O)c2c(C)[nH]c(=O)[nH]c2=O)cc1 -17.8% [at 11.5 µM]
O=C(c1cccs1)c1cn(CCOc2ccc(Cl)cc2)c2ccccc12 -33.6%
Cc1ccc(C(=O)c2cn(Cc3ccccc3F)c3cc4c(cc3c2=O)OCCO4)cc1 2.37%
C[N+](C)(C)CCOC(=O)CCC(=O)OCC[N+](C)(C)C -1.04%
COc1cccc(C2c3c(oc4cc(C)cc(C)c4c3=O)C(=O)N2CCc2ccc(OC)c(OC)c2)c1 (stereo unspecified) -12.7%
COc1ccccc1CNC(=O)CCC1N=C2c3ccccc3N=C(SCC(=O)Nc3ccc(F)cc3)N2C1=O (stereo unspecified) -4.09%
Cc1ccc2c(c1)c1c(c(=O)n(-c3cccc(Cl)c3)c(=O)n1CC(=O)NCCC1=CCCCC1)n2C -6.16%
COc1ccc(CNc2nc(-c3ccccc3)nn2S(=O)(=O)c2ccccc2)cc1 -7.68%
CN(CC(=O)NCc1ccc(Cl)cc1)S(=O)(=O)c1ccc2[nH]c3c(c2c1)CCCC3 -26.6%
O=C(Nc1nnc(-c2cc(Cl)ccc2Cl)o1)c1ccc2c(c1)OCCO2 -11.4%
CCOC(=O)C1CCC(CN(Cc2ccc(OC)cc2)S(=O)(=O)c2ccc(F)c(C(=O)Nc3ccc(C)c(C)c3)c2)CC1 (stereo unspecified) -5.01%
CCc1ccc(NS(=O)(=O)c2ccc3oc(=O)c4ncn(CC)c4c3c2)cc1 -28.5%
COc1ccc(-n2c(Cc3ccccc3)nnc2SCc2nc(-c3cccs3)no2)cc1 -29.8%
O=c1cc(CSc2ncn[nH]2)[nH]c2ccc(F)cc12 5.49%
CN(C)C1(CNC(=O)COc2ccc([N+](=O)[O-])cc2)CCCCC1 -14%
CCC1CN(C(=O)N2CCC(C(=O)NCCc3cc(OC)ccc3OC)CC2)c2ccccc2O1 (stereo unspecified) 1.91%
CCn1c(CN2CCOCC2)nc2cc(NC(=O)c3ccccc3[N+](=O)[O-])ccc21 6.78%
COc1cccc(-n2cc(C(=O)Nc3cccc(C(F)(F)F)c3)c3ccccc3c2=O)c1 -23.4%
Cc1ccc(NC(=O)N2CCc3cc(S(=O)(=O)N4CCC(C)CC4)ccc32)cc1 -6.09%
CCN(C(=O)Cn1c(=O)n(CCCS(=O)(=O)C2CCCCC2)c(=O)c2ccccc21)c1cccc(C)c1 -2%
CC(=O)Nc1cc(-c2nc3cc(Cl)ccc3o2)ccc1C 36%
CC1CCN(C(=O)Cn2c(=O)n(CCCCCC(=O)NCc3ccccc3Cl)c(=O)c3sccc32)CC1 -2.43%
Cc1cc(Cl)ccc1NC(=O)Cn1nc(C)c2c(C)n(-c3ccccc3)nc2c1=O -18.9%
COCCCNc1nc2c(S(=O)(=O)c3ccccc3)nnn2c2ccc(Cl)cc12 -7.11%
O=C(NCc1cccs1)c1nn(-c2ccccc2Cl)nc1CO 1.43%
CC1=C(C(=O)Nc2ccccc2)C(c2ccccc2C)n2nc(SCC(=O)c3ccc(C)cc3)nc2N1 (stereo unspecified) 11%
Cc1[nH]n(-c2ccccc2)c(=O)c1C(c1cc(Cl)ccc1O)c1c(C)[nH]n(-c2ccccc2)c1=O -3.57%
CCOC(=O)c1ccccc1NC(=O)N1CCN(Cc2cc(=O)n3nc(-c4ccccc4)sc3n2)CC1 -4.56%
COC(=O)c1c(-c2cccs2)csc1NC(=O)c1cccc(Cl)c1 53%
COC(=O)c1c(-c2cccs2)csc1NC(=O)c1ccc(Br)cc1 45.8%
Cc1cccc(NC(=O)CSc2nc(-c3cccs3)cc(C(F)(F)F)c2C#N)c1C -14.5%
CCc1ccc(NC(=O)CCS(=O)(=O)c2cc3c(cc2Cl)NC(=O)CO3)cc1 -5.91%
CCN(c1ccccc1)S(=O)(=O)c1cc(Br)cc2c1N(C(=O)C1CC1)CC2 -16.4%
Cc1ccc(-c2cc(C(=O)NCc3cnn(C)c3C)c3ccccc3n2)cc1C 30.2%
Cc1cccc(-c2c3c(=O)n(C)c(=O)n(C)c3c3c(C)nc4ccccc4n23)c1 -9.55% [at 11.5 µM]
N#Cc1ccc(S(=O)(=O)N2CCC(Oc3cccc(C(F)(F)F)c3)CC2)cc1 -26.7%
COc1cc(OC)c(OC)cc1CN1CCc2nc(Nc3ccc4c(c3)OCCO4)ncc2C1 -19.4%
CCCNC(=O)C1=CC(c2ccc3c(c2)OCO3)=NS(=O)(=O)N1C -15.3%
COc1ccc(CNC(=O)C(=O)Nc2c3c(nn2-c2ccccc2)CSC3)cc1 -16.5%
Cn1c(=O)c2c(nc(N3CCOCC3)n2Cc2cccc(Br)c2)n(C)c1=O -17.9%
Cc1ccccc1CNC(=O)Cc1ccc(NC(=O)N2CCCCc3ccccc32)cc1 -24.2%
Cc1nn2c(-c3ccco3)ccnc2c1-c1ccc(Br)cc1 23%
CCOc1ccc(C(=O)c2cn(CC(=O)Nc3cccc(OC)c3)c3cc4c(cc3c2=O)OCCO4)cc1 -17.3%
